In paper PMC11995724, “Antibiotic target discovery by integrated phenotypic and activity-based profiling of electrophilic fragments” (Cell chemical biology, 2025):
Hit rate of the full screen: of about 3,200 compounds, about 75 (2%) showed an effect of 50% or more. Some of the results follow.

What follows are molecules tested on T1, S. aureus MSSA476. Details: relative growth, OD600, TSB; 25 µM; inhibitor.
T1 construct: MSSA476
Parameters: species or system S. aureus MSSA476 (TSB) or V. cholerae SAD30 (LB); 384-well bacterial growth screen at 25 uM, OD600 relative to DMSO control

| Structure (SMILES) | % of control remaining [%] |
| --- | --- |
| CCCc1ccc(-c2csc(NC(=O)CCl)n2)cc1 [4-C09, 2-chloro-N-[4-(4-propylphenyl)-1,3-thiazol-2-yl]acetamide] | 5.717 |
| C=CC(=O)NC(C)c1ccc(Oc2ccccc2)c(F)c1 (stereo not drawn) [2-H13, N-[1-(3-fluoro-4-phenoxyphenyl)ethyl]prop-2-enamide] | 111.749 |
| Cc1cc(N2CCCC(NC(=O)C(C)Cl)C2=O)n(C)n1 (stereo not drawn) [7-B13, 2-chloro-N-[1-(1,3-dimethyl-1H-pyrazol-5-yl)-2-oxopiperidin-3-yl]propanamide] | 83.8305 |
| O=C1C=CC(=O)N1c1cnccn1 [10-P07, 1-(pyrazin-2-yl)-2,5-dihydro-1H-pyrrole-2,5-dione] | 131.875 |
| C=CC(=O)N1CCC(C(=O)Nc2cc(OCC)ccc2Cl)CC1 [1-I20, N-(2-chloro-5-ethoxyphenyl)-1-(prop-2-enoyl)piperidine-4-carboxamide] | 89.6703 |
| C=CC(=O)N1CCCC(C(=O)O)C1 (stereo not drawn) [1-G12, 1-(prop-2-enoyl)piperidine-3-carboxylic acid] | 117.099 |
| C=CC(=O)N(CC(C)(C)C)C1CCN(c2ccc(C#N)cn2)CC1 [1-N09, N-[1-(5-cyanopyridin-2-yl)piperidin-4-yl]-N-(2,2-dimethylpropyl)prop-2-enamide] | 109.011 |
| C=CC(=O)N1CCC(C(=O)Nc2cc(Cl)ccc2SCC)CC1 [1-E06, N-[5-chloro-2-(ethylsulfanyl)phenyl]-1-(prop-2-enoyl)piperidine-4-carboxamide] | 80.1758 |
| N#CC(=Cc1cccs1)C(=O)Nc1ccccc1Cl [9-L11, N-(2-chlorophenyl)-2-cyano-3-(thiophen-2-yl)prop-2-enamide] | 88.9888 |
| C=CC(=O)NCc1cscn1 [1-I07, N-[(1,3-thiazol-4-yl)methyl]prop-2-enamide] | 101.275 |
| N#CC(=CC=Cc1ccccc1)C(=O)Nc1ccc(F)c(Cl)c1 [8-O18, N-(3-chloro-4-fluorophenyl)-2-cyano-5-phenylpenta-2,4-dienamide] | 107.552 |
| CC(Cl)C(=O)NC1CCc2nc(-c3cc(F)ccc3F)cn2C1 (stereo not drawn) [7-K10, 2-chloro-N-[2-(2,5-difluorophenyl)-5H,6H,7H,8H-imidazo[1,2-a]pyridin-6-yl]propanamide] | 101.727 |
| O=C(CCl)C1CCC2(CC1)CC2 [10-C17, 2-chloro-1-{spiro[2.5]octan-6-yl}ethan-1-one] | 123.438 |
| COc1ccc(C2=NN(C(=O)CCl)C(c3ccc(F)cc3)C2)cc1 (stereo not drawn) [4-M20, 2-chloro-1-[5-(4-fluorophenyl)-3-(4-methoxyphenyl)-4,5-dihydro-1H-pyrazol-1-yl]ethan-1-one] | 115.102 |
| C=CC(=O)N1CCCC(n2ccnn2)C1 (stereo not drawn) [1-D09, 1-[3-(1H-1,2,3-triazol-1-yl)piperidin-1-yl]prop-2-en-1-one] | 95.2967 |
| C=CC(=O)N[C@H](C)c1ccccc1OC(C)C [3-N16, N-[(1R)-1-[2-(propan-2-yloxy)phenyl]ethyl]prop-2-enamide] | 99.2599 |
| CC(Cl)C(=O)NC(C)c1ncn(C)n1 (stereo not drawn) [6-P13, 2-chloro-N-[1-(1-methyl-1H-1,2,4-triazol-3-yl)ethyl]propanamide] | 86.0488 |
| C=CC(=O)N(Cc1cc2cccc(OC)c2o1)[C@@H]1C[C@H]2CC[C@@H]1O2 (racemic) [1-J13, rac-N-[(7-methoxy-1-benzofuran-2-yl)methyl]-N-[(1R,2S,4S)-7-oxabicyclo[2.2.1]heptan-2-yl]prop-2-enamide] | 111.121 |
| Cc1nn(-c2ccccc2)c(C)c1CNC(=O)CCl [6-I08, 2-chloro-N-[(3,5-dimethyl-1-phenyl-1H-pyrazol-4-yl)methyl]acetamide] | 104.146 |
| CC(Cl)C(=O)N1CCN(C2=NS(=O)(=O)c3ccccc32)CC1 (stereo not drawn) [7-K11, 3-[4-(2-chloropropanoyl)piperazin-1-yl]-1lambda6,2-benzothiazole-1,1-dione] | 68.1319 |
| N#Cc1ccccc1NC(=O)CCl [5-P04, 2-chloro-N-(2-cyanophenyl)acetamide] | 97.2678 |
| CCCn1c(C)cc(C=C(C#N)C(=O)N2CCC2)c1C [8-L08, 2-(azetidine-1-carbonyl)-3-(2,5-dimethyl-1-propyl-1H-pyrrol-3-yl)prop-2-enenitrile] | 96.9295 |
| C=CC(=O)NCc1ccc(C(=O)N2CCC[C@H]2C(=O)NC)cc1 [3-L06, (2S)-N-methyl-1-{4-[(prop-2-enamido)methyl]benzoyl}pyrrolidine-2-carboxamide] | 87.0701 |

| Structure (SMILES) | % of control remaining [%] |
| --- | --- |
| C=CC(=O)Nc1ccc(C(=O)NCC2CSCCS2)cc1 (stereo not drawn) [2-K21, N-[(1,4-dithian-2-yl)methyl]-4-(prop-2-enamido)benzamide] | 131.245 |
| Cc1nc([C@H]2CCCN2C(=O)C(C)Cl)cs1 (stereo partly drawn) [7-O04, 2-chloro-1-[(2R)-2-(2-methyl-1,3-thiazol-4-yl)pyrrolidin-1-yl]propan-1-one] | 97.6452 |
| C=CC(=O)NC1CCCN(Cc2ccccc2)C1=O (stereo not drawn) [2-L13, N-(1-benzyl-2-oxopiperidin-3-yl)prop-2-enamide] | 107.572 |
| C=CC(=O)Nc1cnoc1C(C)C [3-L10, N-[5-(propan-2-yl)-1,2-oxazol-4-yl]prop-2-enamide] | 129.56 |
| Cc1cc(C)c(-c2cc(NC(=O)CCl)n(-c3ccccc3)n2)cc1C [6-A10, 2-chloro-N-[1-phenyl-3-(2,4,5-trimethylphenyl)-1H-pyrazol-5-yl]acetamide] | 60.439 |
| C=CC(=O)N1CCC(c2nnc3n2CCCC3)CC1 [2-J21, 1-(4-{5H,6H,7H,8H-[1,2,4]triazolo[4,3-a]pyridin-3-yl}piperidin-1-yl)prop-2-en-1-one] | 121.497 |
| CC(NC(=O)CCl)c1ccc2c(c1)CCCC2 (stereo not drawn) [4-B03, 2-chloro-N-[1-(5,6,7,8-tetrahydronaphthalen-2-yl)ethyl]acetamide] | 76.6079 |
| CC1=C(c2ccco2)CN(C(=O)CCl)CC1 [5-H05, 2-chloro-1-[5-(furan-2-yl)-4-methyl-1,2,3,6-tetrahydropyridin-1-yl]ethan-1-one] | 84.8816 |
| C=CC(=O)N1CCCCC1C1CCCO1 (stereo not drawn) [2-L21, 1-[2-(oxolan-2-yl)piperidin-1-yl]prop-2-en-1-one] | 124.282 |
| CC(Cl)C(=O)N1CCN(C(=O)C(F)(F)F)C2(CCCCC2)C1 (stereo not drawn) [7-K06, 2-chloro-1-[1-(2,2,2-trifluoroacetyl)-1,4-diazaspiro[5.5]undecan-4-yl]propan-1-one] | 91.9937 |
| CCc1nocc1CN(C)C(=O)C(C)Cl (stereo not drawn) [7-M06, 2-chloro-N-[(3-ethyl-1,2-oxazol-4-yl)methyl]-N-methylpropanamide] | 99.2151 |
| CCc1ccc(NC(=O)C(C)Cl)cc1 (stereo not drawn) [4-L15, 2-chloro-N-(4-ethylphenyl)propanamide] | 105.193 |
| C=CC(=O)N1CCN(Cc2cc(C)no2)CC1 [1-B18, 1-{4-[(3-methyl-1,2-oxazol-5-yl)methyl]piperazin-1-yl}prop-2-en-1-one] | 126.945 |
| Cc1c(Cl)cccc1N1C(=O)C=CC1=O [10-B17, 1-(3-chloro-2-methylphenyl)-2,5-dihydro-1H-pyrrole-2,5-dione] | 100.625 |
| COc1ccc(C=C(C#N)C(=O)Nc2ccc(C)cc2)cc1 [9-A19, 2-cyano-3-(4-methoxyphenyl)-N-(4-methylphenyl)prop-2-enamide] | 94.0824 |
| CC(Cl)C(=O)NC(C)c1ccc(C(F)(F)F)nc1Cl (stereo not drawn) [7-G09, 2-chloro-N-{1-[2-chloro-6-(trifluoromethyl)pyridin-3-yl]ethyl}propanamide] | 111.774 |
| CC(NC(=O)c1ccccc1NC(=O)CCl)c1ccccc1 (stereo not drawn) [4-B07, 2-(2-chloroacetamido)-N-(1-phenylethyl)benzamide] | 109.385 |
| COc1ccccc1NC(=O)c1ccc(NC(=O)CCl)cc1 [4-O17, 4-(2-chloroacetamido)-N-(2-methoxyphenyl)benzamide] | 92.2344 |
| CCn1cc(S(=O)(=O)N2CCSSCC2)cn1 [10-N19, 5-[(1-ethyl-1H-pyrazol-4-yl)sulfonyl]-1,2,5-dithiazepane] | 97.1875 |
| C=CC(=O)N(Cc1cnn(C(C)C)c1)c1ccc2nc(C)oc2c1 [2-C13, N-(2-methyl-1,3-benzoxazol-6-yl)-N-{[1-(propan-2-yl)-1H-pyrazol-4-yl]methyl}prop-2-enamide] | 151.088 |
| Cc1cccc(NC(=O)C(C#N)=Cc2ccc(F)c(F)c2)c1 [8-I16, 2-cyano-3-(3,4-difluorophenyl)-N-(3-methylphenyl)prop-2-enamide] | 75.6846 |
| C=CC(=O)Nc1ccc(C(F)C(F)(F)F)cc1 (stereo not drawn) [1-O20, N-[4-(1,2,2,2-tetrafluoroethyl)phenyl]prop-2-enamide] | 90.7253 |
